About 2,200 (0.71%) of roughly 310,000 compounds showed an effect of 50% or more. Effects have a minus sign here. This is one part of the list.
molecular target: human ether-à-go-go-related gene (hERG) potassium channel (human, UniProt Q12809); assay: primary screen, population patch clamp on CHO cells stably expressing hERG
Sequence (Q12809 whole entry, looked up): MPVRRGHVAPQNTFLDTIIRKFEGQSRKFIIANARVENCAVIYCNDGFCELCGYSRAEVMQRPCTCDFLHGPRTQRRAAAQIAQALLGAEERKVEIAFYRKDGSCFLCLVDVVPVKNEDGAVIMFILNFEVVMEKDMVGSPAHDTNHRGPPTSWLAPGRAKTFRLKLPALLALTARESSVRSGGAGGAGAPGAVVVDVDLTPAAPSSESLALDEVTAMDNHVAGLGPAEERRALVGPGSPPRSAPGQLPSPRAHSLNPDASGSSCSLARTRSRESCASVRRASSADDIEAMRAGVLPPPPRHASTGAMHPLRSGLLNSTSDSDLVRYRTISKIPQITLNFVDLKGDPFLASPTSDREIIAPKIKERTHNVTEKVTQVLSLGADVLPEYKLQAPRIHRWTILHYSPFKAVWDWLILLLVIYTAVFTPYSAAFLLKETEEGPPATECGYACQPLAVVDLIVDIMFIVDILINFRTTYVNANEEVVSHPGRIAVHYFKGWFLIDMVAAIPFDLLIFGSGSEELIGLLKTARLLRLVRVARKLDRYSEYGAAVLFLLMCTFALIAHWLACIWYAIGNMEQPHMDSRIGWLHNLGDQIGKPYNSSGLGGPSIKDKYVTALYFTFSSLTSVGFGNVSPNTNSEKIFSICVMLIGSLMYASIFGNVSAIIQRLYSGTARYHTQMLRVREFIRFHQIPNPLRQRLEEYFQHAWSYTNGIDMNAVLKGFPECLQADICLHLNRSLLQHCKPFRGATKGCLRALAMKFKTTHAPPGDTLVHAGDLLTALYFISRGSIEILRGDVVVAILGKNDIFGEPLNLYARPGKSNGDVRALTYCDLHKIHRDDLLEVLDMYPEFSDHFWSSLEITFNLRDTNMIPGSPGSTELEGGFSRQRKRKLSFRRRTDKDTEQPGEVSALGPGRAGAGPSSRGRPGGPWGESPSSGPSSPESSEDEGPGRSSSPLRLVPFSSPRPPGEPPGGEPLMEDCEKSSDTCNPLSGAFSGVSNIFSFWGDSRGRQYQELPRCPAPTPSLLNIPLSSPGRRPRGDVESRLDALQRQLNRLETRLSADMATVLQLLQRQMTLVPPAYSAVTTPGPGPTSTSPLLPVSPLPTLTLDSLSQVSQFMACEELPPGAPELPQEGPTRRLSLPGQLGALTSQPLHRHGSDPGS

Row | Compound | hERG current change (%, negative = inhibition) at 1uM [%]
1 | OCC1(CCc2ccccc2)CCN(Cc2cccn2-c2cccnc2)CC1 | -23.3
2 | N#Cc1c(C(F)(F)F)cc(-c2ccccc2)nc1SCC(=O)Nc1sc2c(c1C#N)CCC2 | 11.2
3 | COCCCN1C(=O)C(=O)/C(=C(/O)c2ccc3c(c2)CC(C)O3)C1c1cccnc1 (stereo not drawn) | 6.13
4 | Cc1cccc(NC(=O)CCNC(=O)c2ccc(Br)cc2)c1C | 14.6
5 | CN(C(=O)c1ccc2c(c1)C(=O)N(CCC1=CCCCC1)C2=O)C1CCCCC1 | 13.1
6 | CCOC(=O)N/N=C\c1ccc([N+](=O)[O-])s1 | 11.6
7 | CC(=O)N/C(=C\c1ccccc1)C(=O)OCC(=O)c1ccccc1 | 10.8
8 | CCN(CC)CCCN1C(=O)C(=O)/C(=C(/O)c2ccc(OC)cc2)C1c1ccco1 (stereo not drawn) | 9.12
9 | Cc1ccc(C(=O)N/C(=C/c2cccs2)C(=O)NCC2CCCO2)cc1 (stereo not drawn) | 8.14
10 | COc1ccc(C(=O)C(CO)Oc2ccccc2OC)cc1OC (stereo not drawn) | 10
11 | Cc1ccc(C)c(CN2CCCN(Cc3cc(C)ccc3C)S2(=O)=O)c1 | 18.9
12 | CN(CC(=O)Nc1ccccc1-c1ccccc1)Cc1ccccc1Cl | 10.3
13 | CCCn1nnnc1SCC(=O)NCc1ccccc1 | 6.38
14 | COc1cccc(C(=O)NCC2CCN(c3ccc(S(=O)(=O)N4CCOCC4)cc3)CC2)c1 | 0.663
15 | COc1ccc(CNC(=O)[C@]2(C)CCC[C@@]3(C)C4CC[C@@]5(C)C[C@]4(CCC32)CC5=O)cc1 (stereo partly drawn) | 13
16 | O=C(c1ccc2nc(N3CCCCC3)sc2c1)N1CCN(c2ccccn2)CC1 | 3.02
17 | CC1Cc2ccccc2N1C(=S)Nc1cccc(S(=O)(=O)N(C)C)c1 (stereo not drawn) | 9.2
18 | S=c1nc(-c2ccccc2)n(-c2ccccc2)[nH]1 | 12.1
19 | CSc1ccc(/C=N/NC(=O)c2cccs2)cc1 | 13.4
20 | O=C(OCc1ccc([N+](=O)[O-])cc1)c1cnc(Cl)c(Cl)c1 | 20.7
21 | CCCOc1ccc(C(=O)c2nc3c(n2O)CCCC3)cc1 | 18.1
22 | O=C(CSc1nnc(SCc2ccc(Cl)cc2)s1)N/N=C/c1ccccc1Cl | -4.67
23 | O=C(NCCCN1CCCC1=O)c1ccc(S(=O)(=O)Nc2cccc(C(F)(F)F)c2)cc1 | 16.6
24 | COc1ccc(C(=O)NCC(c2ccco2)N2CCc3ccccc32)cc1OC (stereo not drawn) | -3.98

Source: article PMC4336329 (PLoS ONE, 2015)
